The supplement of paper PMC12217912
The list shows a part of the results. Sequences were assembled here from the parent chain. Inactive controls read about 0.05.

B1: TEV protease; numbered along this chain (parent)
chain: MGESLFKGPRDYNPISSSICHLTNESDGHTTSLYGIGFGPFIITNKHLFRRNNGTLVVQSLHGVFKVKDTTTLQQHLVDGRDMIIIRMPKDFPPFPQKLKFREPQREERICLVTTNFQTKSMSSMVSDTSCTFPSGDGIFWKHWIQTKDGQCGSPLVSTRDGFIVGIHSASNFTNTNNYFTSVPKNFMELLTNQEAQQWVSGWRLNADSVLWGGHKVFMVKPEEPFQPVKEATQL

Variants of: B1
Experiment: raw area under fraction-flipped curve 0-4 h after induction (AUC4h, not background-subtracted), DNA-recorder readout of cleavage of the substrate (dimensionless); higher = more cleavage of the substrate by the protease variant
Conditions: temperature: 34 °C; time window: 0-4 h after rhamnose induction
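Also: Bxb1 expression induced with 0.2% (w/v) L-rhamnose at OD600 near 0.5, cultures sampled hourly, flipped fraction per protease–substrate barcode pair counted by paired-end Illumina sequencing.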

Row | Variant | area with substrate KNLYFQS | area with substrate NNLYFQS | area with substrate PNLYFQS | area with substrate WNLYFQS | area with substrate MNLYFQS | area with substrate QNLYFQS | area with substrate SNLYFQS | area with substrate TNLYFQS | area with substrate VNLYFQS | area with substrate LNLYFQS
1 | V58G | 0.0621 | 0.0457 | 0.0585 | 0.0407 | – | – | – | – | – | –
2 | F65V | 0.0389 | – | – | – | 0.0582 | 0.0767 | 0.0693 | – | – | –
3 | Q74I | 0.0678 | – | – | 0.0521 | 0.0585 | – | 0.059 | – | – | –
4 | F95N | 0.0475 | – | – | 0.0574 | – | – | 0.0544 | 0.0473 | 0.068 | –
5 | Q97G | 0.0854 | – | – | – | – | – | – | – | – | –
6 | L99W | 0.0501 | – | – | – | 0.0633 | – | – | – | – | –
7 | F101H | 0.0569 | – | – | – | – | – | – | 0.0486 | – | 0.0421
8 | N116T | 0.0647 | – | – | 0.0413 | – | 0.0724 | – | – | – | –
9 | G138T | 0.0571 | – | – | – | – | – | – | – | – | –
10 | V165L | 0.0661 | – | 0.0667 | – | – | – | 0.0527 | 0.104 | 0.0674 | –
11 | S169K | 0.0726 | – | – | 0.0288 | – | – | – | 0.0514 | – | –
12 | A170F | 0.0592 | – | – | – | – | – | – | – | – | –
13 | T174E | 0.0541 | – | – | 0.056 | 0.0588 | – | – | 0.0599 | – | –
14 | N178Q | 0.062 | – | 0.0689 | 0.0698 | – | – | – | – | – | 0.0767
15 | F180S | 0.0673 | – | 0.0481 | – | – | – | – | – | – | –
16 | T181I | 0.0633 | – | – | 0.0608 | 0.0682 | – | 0.0636 | – | – | –
17 | N186T | 0.0464 | – | – | 0.0685 | – | – | – | – | – | 0.0862
18 | W199Q | 0.0383 | – | – | – | – | – | 0.0674 | 0.0656 | – | –
19 | W203P | 0.0666 | 0.0638 | – | – | – | – | – | 0.0577 | – | –
20 | N206P | 0.0447 | – | – | – | – | – | – | – | – | –
21 | S209Y | 0.0774 | – | – | – | 0.0872 | – | – | – | 0.0711 | 0.0813

Row | Variant | area with substrate KNLYFQS | area with substrate NNLYFQS | area with substrate PNLYFQS | area with substrate WNLYFQS | area with substrate MNLYFQS | area with substrate QNLYFQS | area with substrate SNLYFQS | area with substrate TNLYFQS | area with substrate VNLYFQS | area with substrate LNLYFQS
22 | L235Y | 0.0761 | 0.0702 | – | – | – | – | – | 0.12 | 0.0409 | –
23 | G37C | – | – | – | 0.0621 | – | – | – | – | – | 0.087
24 | K66H | – | 0.0468 | – | 0.0678 | – | 0.0706 | 0.0723 | 0.0622 | – | 0.058
25 | P93W | – | 0.0525 | – | – | – | – | – | 0.0647 | – | 0.0616
26 | F95L | – | – | 0.06 | – | – | – | – | 0.0509 | – | 0.0594
27 | Q97T | – | – | – | – | – | – | – | 0.0683 | – | 0.0588
28 | C131P | – | – | 0.111 | 0.0493 | – | – | 0.0758 | 0.0737 | – | 0.0609
29 | G138L | – | – | – | 0.0527 | – | 0.0615 | – | – | – | 0.0547
30 | G138W | – | – | 0.0631 | – | – | – | 0.0712 | – | – | 0.0629
31 | A170Q | – | – | – | – | – | – | – | – | – | 0.0695
32 | N172W | – | – | – | 0.0656 | – | – | – | 0.0632 | – | 0.0897
33 | N186F | – | – | – | 0.0715 | – | – | – | – | – | 0.0572
34 | L190D | – | – | – | – | 0.0609 | – | 0.0682 | 0.0639 | 0.0548 | 0.0708
35 | E195S | – | – | 0.054 | – | – | 0.0747 | – | 0.0612 | – | 0.0697
36 | E195T | – | – | – | 0.0502 | – | – | 0.047 | – | – | 0.0606
37 | L205S | – | – | – | 0.0661 | – | – | – | 0.0722 | – | 0.0535
38 | V210E | – | 0.056 | – | – | – | – | 0.0558 | – | – | 0.0541
39 | L211D | – | – | – | – | – | – | – | – | – | 0.0655
40 | W212A | – | – | – | – | – | – | – | 0.0527 | – | 0.0659
41 | F226V | – | – | 0.0604 | 0.0541 | 0.0679 | – | 0.0907 | – | – | 0.0698

Same assay, conditions: temperature: 34 °C; time window: 0-4 h after rhamnose induction

Row | Variant | area with substrate YNLYFQS | area with substrate RNLYFQS
42 | F101H | 0.047 | –
43 | G138T | – | 0.0546
44 | V165L | 0.0704 | –
45 | N178Q | 0.0867 | –
46 | N186T | 0.0579 | –
47 | W199Q | 0.0565 | –
48 | W203P | 0.063 | –
49 | N206P | 0.0482 | –
50 | G138L | 0.0638 | 0.0516
51 | G138W | 0.0564 | –
52 | L190D | 0.0599 | –
53 | E195S | 0.071 | –
54 | L205S | 0.0309 | –
55 | W212A | – | 0.0663
